The values that follow come from paper PMC8546615, “Polyketide Starter and Extender Units Serve as Regulatory Ligands to Coordinate the Biosynthesis of Antibiotics in Actinomycetes” (mBio, 2021).

One may read the Kd as the constant that tells how readily two partners part at equilibrium.

T1: AcrT (Saccharopolyspora erythraea A226) (UniProt A4FGS6)
T1 sequence: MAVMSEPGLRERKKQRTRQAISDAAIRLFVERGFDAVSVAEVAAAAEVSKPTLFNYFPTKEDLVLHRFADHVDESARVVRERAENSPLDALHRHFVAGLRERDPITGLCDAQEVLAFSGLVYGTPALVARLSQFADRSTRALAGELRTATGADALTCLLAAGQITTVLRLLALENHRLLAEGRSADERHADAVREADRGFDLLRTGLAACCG

T2: AcrTSc (SCO4194) (Streptomyces coelicolor, UniProt Q9FCH5)
T2 construct: His-tagged, E. coli BL21(DE3), Ni-NTA
T2 sequence (Q9FCH5 1-213): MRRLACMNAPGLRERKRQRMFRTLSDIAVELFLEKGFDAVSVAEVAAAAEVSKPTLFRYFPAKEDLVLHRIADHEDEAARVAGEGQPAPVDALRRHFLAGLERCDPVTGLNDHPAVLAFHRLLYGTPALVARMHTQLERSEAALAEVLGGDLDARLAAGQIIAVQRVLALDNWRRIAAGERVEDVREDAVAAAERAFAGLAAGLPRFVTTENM

T3: AcrTSc (Streptomyces coelicolor M145) (UniProt Q9FCH5)
T3 sequence: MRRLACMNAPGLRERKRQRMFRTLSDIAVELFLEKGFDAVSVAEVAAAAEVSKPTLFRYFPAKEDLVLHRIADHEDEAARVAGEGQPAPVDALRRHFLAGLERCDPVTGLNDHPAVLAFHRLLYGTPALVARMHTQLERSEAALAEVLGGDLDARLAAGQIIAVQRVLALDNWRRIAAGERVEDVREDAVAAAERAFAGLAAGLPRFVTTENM

B1: 50-bp site A probe (dsDNA)
DNA 1: AGGCGATGTCAACCTCTTGATCCTTCCTATATTGTTCGCCCATTGCGTGG
DNA 2: CCACGCAATGGGCGAACAATATAGGAAGGATCAAGAGGTTGACATCGCCT

One data set has as its target AcrT (Saccharopolyspora erythraea A226, UniProt A4FGS6 1-212). As to the kind of experiment: BLI; no ligand; BLI: 1 mM Tris-HCl pH 8.0, 5 mM MgCl2, 60 mM KCl, 10 mM DTT, 50 mM EDTA, 10% glycerol, 25 C; EMSA: binding buffer (composition not given), 30 C 20 min, 6% native PAGE in TAE; footprint: binding 30 C 30 min, DNase I 25 C. The note with it: protein: recombinant; tags: N-terminal His (pET28a); chain copies: 2; label: biotin; blunt.
B1: the Kd came to 16.4 nM.

The target in a further data set is T1, AcrT (Saccharopolyspora erythraea A226). As to the kind of experiment: DNase I footprinting. The note with it: BLI: 1 mM Tris-HCl pH 8.0, 5 mM MgCl2, 60 mM KCl, 10 mM DTT, 50 mM EDTA, 10% glycerol, 25 C; EMSA: binding buffer (composition not given), 30 C 20 min, 6% …. (In general: In EMSA bound probe runs differently from free probe, usually more slowly.)
Consider “CGGAGCATTTGCTCGCTTTCCAGGTCGGTGCTACGGGCGAAATTCAAAGAATCTCCCCAGCGCGATGTGCGGCAACCCGTCACTGGGCCACCACAGTAGGTAGCCGCCGTTGATCTTGTCAACATGCAGATGTTCACAGGTTCGTTGGCTCGACGAGGCGATGTCAACCTCTTGATCCTTCCTATATTGTTCGCCCATTGCGTGGTCGTCGAGTAGGGGGACGC (double strand) [PeryAI FAM/HEX]”, for which the binding entry is “binds”.

The target of the next data set is T2, AcrTSc (SCO4194). Kind of data set: EMSA (enhanced binding to PactI-ORF1 DNA); EGFP reporter in E. coli. Particulars: PactI-ORF1 promoter DNA; EMSA at 30 °C; allosteric.
Consider `CC(=O)SCCNC(=O)CCNC(=O)[C@H](O)C(C)(C)COP(=O)(O)OP(=O)(O)OC[C@H]1O[C@@H](n2cnc3c(N)ncnc32)[C@H](O)[C@@H]1OP(=O)(O)O` [A-CoA], for which the “EMSA (enhanced binding to PactI-ORF1 DNA); EGFP reporter in E. coli” value is listed as “A-CoA or M-CoA could promote AcrTSc to interact with PactI-ORF1”.

For the molecule `CC(C)(COP(=O)(O)OP(=O)(O)OC[C@H]1O[C@@H](n2cnc3c(N)ncnc32)[C@H](O)[C@@H]1OP(=O)(O)O)[C@@H](O)C(=O)NCCC(=O)NCCSC(=O)CC(=O)O` [M-CoA], the “EMSA (enhanced binding to PactI-ORF1 DNA); EGFP reporter in E. coli” value was “A-CoA or M-CoA could promote AcrTSc to interact with PactI-ORF1”.

The next data set has as its target T4, AcrTSa (SAV4017) (Streptomyces avermitilis, UniProt Q82G81).
T4 construct: gene SAVERM_4017; His-tagged, E. coli BL21(DE3), Ni-NTA
As to the kind of experiment: EMSA (release from PaveA1 DNA); EGFP reporter in E. coli. The format is binding. The note with it: PaveA1 promoter DNA; EMSA at 30 °C; allosteric.
Turning to `CC(C)C(=O)SCCNC(=O)CCNC(=O)[C@H](O)C(C)(C)COP(=O)(O)OP(=O)(O)OC[C@H]1O[C@@H](n2cnc3c(N)ncnc32)[C@H](O)[C@@H]1OP(=O)(O)O` [IB-CoA], the “EMSA (release from PaveA1 DNA); EGFP reporter in E. coli” value (“EMSA (release from PaveA1 DNA)” below) was “MB-CoA, IB-CoA, M-CoA, and MM-CoA serve as ligands to coordinate avermectin biosynthesis”.

For the molecule `CC(C)(COP(=O)(O)OP(=O)(O)OC[C@H]1O[C@@H](n2cnc3c(N)ncnc32)[C@H](O)[C@@H]1OP(=O)(O)O)[C@@H](O)C(=O)NCCC(=O)NCCSC(=O)CC(=O)O` [M-CoA], the “EMSA (release from PaveA1 DNA)” value is “MB-CoA, IB-CoA, M-CoA, and MM-CoA serve as ligands to coordinate avermectin biosynthesis”.

For `CCC(C)C(=O)SCCNC(=O)CCNC(=O)[C@H](O)C(C)(C)COP(=O)(O)OP(=O)(O)OC[C@H]1O[C@@H](n2cnc3c(N)ncnc32)[C@H](O)[C@@H]1OP(=O)(O)O` (stereo partly drawn) [MB-CoA], the “EMSA (release from PaveA1 DNA)” value is listed as “four acyl-CoA precursors could mediate the dissociation of AcrTSa from the promoter of aveA1”.

As to `CC(C(=O)O)C(=O)SCCNC(=O)CCNC(=O)[C@H](O)C(C)(C)COP(=O)(O)OP(=O)(O)OC[C@H]1O[C@@H](n2cnc3c(N)ncnc32)[C@H](O)[C@@H]1OP(=O)(O)O` (stereo partly drawn) [MM-CoA], the “EMSA (release from PaveA1 DNA)” value is “MB-CoA, IB-CoA, M-CoA, and MM-CoA serve as ligands to coordinate avermectin biosynthesis”.

The next data set has as its target T3, AcrTSc (Streptomyces coelicolor M145). As to the kind of experiment: EMSA. Particulars: BLI: 1 mM Tris-HCl pH 8.0, 5 mM MgCl2, 60 mM KCl, 10 mM DTT, 50 mM EDTA, 10% glycerol, 25 C; EMSA: binding buffer (composition not given), 30 C 20 min, 6% ….
On to “CCGCTGGTCGCACCCGTCACCAGTGCGACTTCGGAGTCCTGCGTGGCCATGTGTTCCCCTCCCTGCCTCGTGGTCCCTCACGCGCTCAGCTTTGGGCGCCCGGCTCGAGCGGCGGTCGAAGGGAGATGGGGTGCCGCTGGACGCGGCGCCGGTGGATCCGGCATCGAGGGGTCCCGTATC (double strand) [PactI-ORF1]”, for which the binding result is listed as “binds”.

For another data set, the target named is T1, AcrT (Saccharopolyspora erythraea A226). Kind of data set: EMSA. Particulars: BLI: 1 mM Tris-HCl pH 8.0, 5 mM MgCl2, 60 mM KCl, 10 mM DTT, 50 mM EDTA, 10% glycerol, 25 C; EMSA: binding buffer (composition not given), 30 C 20 min, 6% ….
Turning to “ACGCGCTCACCCCCAGTCATGCAAACAATTTTCAGCTTGATCAACCTAACACCGGCGCGCGGTGCCGACACGGACTTTTCGGACGCCGCTCCTCGGCCGGACATCGCAGCGGAAAGCGCGATCCACAATGGACGCAACGGGAGTCGTAAACCGGCTGATGTGATCCAGGACACAAAGCTCGACGGGTTGGCCGCGGCGCCGCGCTCGTTATGATCTTCCTTGTGGGACT (double strand) [eryBI-BIII-int]”, the binding result is reported as “binds”.

Consider “AGGCCCATCGGTCCGCCCGCTGCTGGCGGGGTGCGCCGCCGGTGCGGCTTCGCCGATCATCCGCAACGAGCCAGGAGAAACCGCAGCGATGAGCAGTGCGACCGAACCTGTCGGGGTGCCGCCGGCGGAGGCACCGGACATCCACACCACCGCGGGCAAGCTGGCCGACCTCTACCGGCGCAACCACGAGGCCGTGCACGCGGGTTCGGA (double strand) [P3398-3399]”, for which the binding entry is reported as “no binding”.

For “CGCGTAGGACTCCGAGGCCGGGTCGACGGCCGTGGTGAGGACGGGCGCATCCATGCGTTGTGCACACCTTCCGCGGTCAGCGCGTTAGTCATCGTTAACCAACGGGATCGATGTTAACGACGACTAACCCCTTCGTCTAGTATCGACACGATGGAGGCAAAGCCGTCCCGGCGCGAGCAGATCCTGGAAG (double strand) [P7038-7039]”, the binding entry is “binds”.

Consider “CGGAGCATTTGCTCGCTTTCCAGGTCGGTGCTACGGGCGAAATTCAAAGAATCTCCCCAGCGCGATGTGCGGCAACCCGTCACTGGGCCACCACAGTAGGTAGCCGCCGTTGATCTTGTCAACATGCAGATGTTCACAGGTTCGTTGGCTCGACGAGGCGATGTCAACCTCTTGATCCTTCCTATATTGTTCGCCCATTGCGTGGTCGTCGAGTAGGGGGACGC (double strand) [PeryAI (eryAI-BIV-int)]”, for which the binding result is “binds”.

“CGGTGGAGGCCGTCGTTCCGGTCATGTCATCCCTCTTCTCGTCGGCGGTGCTCTGCCGCACCGGCCGGAGAGAGCATGCCACAAAGGCTAACTCGGTTAAAAACTAGTACTGGATAACTGATTGACCGAGTCTTGCGATGAGCTAGCATGGCGGTCATGAGCGAGCCGGGTC (double strand) [acrT-3981-int]”: the binding entry is listed as “binds”.

In the case of “GACGTCCTCCTCCTGGTGCGGTCGGTTTGGACGTGTCCTCACCTACACCGAGGCGGCGCGGGCGCGCGTGGATACGTCACCGGCGCCGTCGATCCGGATCCGCCTCGGCATGTATCCCGCGGCGGCGCAGCCCGCTCTGTACGGGTGGATCTCGCGGGCGAGCCGACTCCGCGTCGAGCCACGCGCGAGGTCACCGCGCGAGACGGGTCCCGCTCGTCCGCGACGACCTGTGAGGAGGGACGTGGTGAGT (double strand) [P0018-0028]”, the binding result was “binds”.

“GCATCGTGCCCAGCCAGTCGAGGAGTGCGGTTTCGTCGGCCATGCCGGGAACTTCGTCGATGGTGGTCAACGTTCTCCTCGCGCAGCAGGTCGTTTCCACGTCGGCGAACACGCGTCGCGATCTTGAGCTTAGTCGCGCGCCGGACGGGGTGTCGAGACTTCCGCGGTG (double strand) [PeryK]”: the binding result was “binds”.

For “GCTGCTTCTTTAGCACACCGCTACCAGCGCCAAATCGATGTGACCAGGCGTTTTACCTCGACATGATTGTTTGTTTACAACCTTTTTTCAGGCGTTTGCGCTCGCAGGCGTTGCTTTGGCGAGCGCGCTGTGATCTTCGTCATCAGTTCGGTGAGGGCACTCGATCCGATTGCGTGAGCGCCACCCCGCGGTGCACTGTTGCACGACGACCACGGCCGCTTCCGCGTTCCGAACCCCCGCCACGTCGAAACCGCGCGCGCCCGCGCGCGGCACCACCGAGCGTGAGAGACGAGGCATC (double strand) [P0632-0633]”, the binding result is “binds”.

For “GGAGATCCCGGAGGTGTTGCTGTGATCGGTCGAGCGAGCAGCGCGGGCGTTGCCGCGCCCACCGCCGACCAGCGCGGCCGGTTCGGCCGGACCGCGGCGAATCAGGCGGGGGAGAGGGCATGACGGCGCTGAAGTCGCAAGTGGACACCA (double strand) [P3241-3242]”, the binding entry was “no binding”.

Regarding “GTCCCACCTGCCCAAAAGGCCAAACCCGATTGCTGCGCGAGGGCCCTCCTGCGGTCTAGCGTGACTACCGACAGGACCCCAACGGGGTGGTGCTGCGGCGGTTCGGACACCCCGGCCGGCGCATGTGCGCGATCGACAACGCAGCCCGGACAGCACGGCCGCCCGGGGCGCGGGTCGTCGGCGACGCAAGCCGCCCCTGACGAGCGCGAGAGGTTCCCGA (double strand) [P0649]”, the binding entry was “no binding”.

Consider “GTCGCCGGTCCGATCACCCATCGACTCTCCCTGCGGTGTCGTCGACGGCTCCGCTTGCTGCCGCCGGGCGTTGTCGATCAAGACCCGCACTCACTGTAAGGGTCCGGTCACGGCGGGGAAAGGGCCCGTGGAGCGGATCACCTGTGCCAGGAACGGAAAACGCGAACGCACGGGTCATCCGCGCACACCGACGA (double strand) [PeryBVI]”, for which the binding result is “binds”.

Consider “TCCAGGAAGGGGACGTCCATGCGAGTGTCCGTTCGAGTGGCGGCTTGCGCCCGATGCTAGTCGCGGTTGATCGGCGATCGCAGGTGCACGCGGTCGATCTTGACGGCTGGCGAGAGGTGCGGGGAGGATCTGACCGACGCGGTCCACACGTGGCACCGCGATGCTGTTGTGGGCTGGACAATCGTGCCGGTTGGTAGGATCCAGCGGTGAGCAGTTCGGACGAGCA (double strand) [ermE-eryCI-int]”, for which the binding result was “binds”.
